The nature of test [1]: qHTS assay to identify small molecule antagonists of the thyroid receptor (TR) signaling pathway (AID 743065). Further: nearly all actives have a fitted effect of over 55% in size. An outline of the steps: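 Antagonism measured as loss of luciferase signal in GH3 cells stably carrying a TRE-luciferase reporter, co-treated with compound and T3 (1 nM final) for 23.5 h at 37 C. Viability was read in the same well by CellTiter-Fluor.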
A general note: qHTS replaces the single test concentration by a dilution series.

A short description of test [2]: qHTS assay for identifying genotoxic compounds that show differential cytotoxicity against isogenic chicken DT40 cell lines with known DNA damage response pathways - wild type cell line (AID 743012). Further: nearly all actives have a fitted effect of over 60% in size. Particulars: DT40 wild type chicken cells viability, CellTiter-Glo, 40 h. An outline of the steps:
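Wild type DT40, 300 cells/well, ~0.5 h settle at 37 C/5% CO2; compounds in DMSO added by pintool; 40 h at 37 C/5% CO2; CellTiter-Glo, 30 min RT; luminescence.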

The nature of test [3]: qHTS assay to identify small molecule antagonists of the androgen receptor (AR) signaling pathway using the MDA cell line - cell viability counter screen (AID 743041; further: nearly all actives have a fitted effect of over 45% in size). An outline of the steps: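 Cells were plated at 3,000 per well and left 5 h. Compounds in DMSO were then pinned in, followed by R1881. After 16 h at 37C, CellTiter-Fluor fluorescence gave viability.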
The nature of test [4]: qHTS assay to identify small molecule antagonists of the estrogen receptor alpha (ER-alpha) signaling pathway using the BG1 cell line (AID 743080; calls by dose curve;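 further: BG1 cells stimulated with 17beta-estradiol alongside compound; nearly all actives have a fitted effect of over 25% in size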). Particulars: BG1Luc4E2 ERE-luciferase antagonist mode, luminescence. In outline: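 Luciferase inhibition measured with ONE-Glo after 30 min at RT in BG1Luc4E2 cells given test compounds and 17beta-estradiol for 21.5 h at 37 C; CellTiter-Fluor viability read in the same wells beforehand.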

Test [5] deals with Androgen receptor (Homo sapiens) (UniProt P10275). Kind of test: qHTS assay to identify small molecule agonists of the androgen receptor (AR) signaling pathway using the MDA cell line (AID 743040; further: nearly all actives have a fitted effect of over 20% in size).
Test [6] in a line: qHTS assay for small molecules that induce genotoxicity in human embryonic kidney cells expressing luciferase-tagged ATAD5 - cell viability (AID 651634; calls by dose curve; further: nearly all actives have a fitted effect of over 25% in size). An outline of the steps:
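Fluorescence from CellTiter-Fluor, reporting protease activity within live cells, served as the viability read-out. HEK293T cells carrying luciferase-tagged ATAD5 had been treated with compound for 15.5 hr at 37C.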

Test [7] can be described thus: qHTS assay to identify small molecule antagonists of the estrogen receptor alpha (ER-alpha) signaling pathway using the BG1 cell line in the presence of 0.1 nM 17-beta-estradiol - cell viability counter screen (AID 1259241). Further: nearly all actives have a fitted effect of over 40% in size. An outline of the steps:
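VM7Luc4E2 cells (endogenous full-length ER-alpha, 4xERE-luciferase), cultured 5 days in charcoal-stripped serum, exposed to compounds with 0.1 nM 17beta-estradiol (final) for 22 hr at 37C. Viability read in same wells as live-cell protease fluorescence after 30 min.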

A short description of test [8]: A CellTox Green Cytotoxicity Assay to monitor cytotoxicity in HEK293 cells - 24 hour (AID 1224875). Further: nearly all actives have a fitted effect of over 45% in size. In outline: (§1)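 Nonlytic real-time cytotoxicity: HEK293 + CellTox Green reagent plated, 5 h preincubation, pintool compound addition (23 nL in DMSO), 37 C for 40 h, fluorescence measured at successive time points.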
The nature of test [9]: A CellTox Green Cytotoxicity Assay to monitor cytotoxicity in HEK293 cells - 16 hour (AID 1224888). Further: nearly all actives have a fitted effect of over 35% in size. In outline:
as §1

The nature of test [10]: qHTS assay to identify small molecule antagonists of the peroxisome proliferator-activated receptor gamma (PPARg) signaling pathway - cell viability counter screen (AID 743194). Further: nearly all actives have a fitted effect of over 55% in size. An outline of the steps: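 Viability was measured as CellTiter-Glo luminescence in GeneBLAzer PPARg UAS-bla HEK293H cells. These cells had been exposed 17 h at 37 C to compounds together with rosiglitazone at 50 nM final, with the beta-lactamase readout taken in the same wells.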

The nature of test [11]: qHTS assay to identify small molecule antagonists of the TGF-beta/Smad signaling pathway - cell viability counter screen (AID 1346824). Further: nearly all actives have a fitted effect of over 50% in size. An outline of the steps:
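Cytotoxicity counter-screen run in the same wells as the beta-lactamase Smad reporter read: CellTiter-Glo luminescence after 30 min at room temperature. HEK 293T SBE-bla cells had 5 hr compound exposure at 37 C with TGF-beta1 (0.25 ng/mL stock).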

Test [12] addresses Glucocorticoid receptor (Homo sapiens) (UniProt P04150). As to the kind of experiment: qHTS assay to identify small molecule antagonists of the glucocorticoid receptor (GR) signaling pathway (AID 720692; active means well fitted inhibition curve with a large enough effect in the signal ratio in the repeat runs, not every such curve was filed as active; inconclusive means weak or mixed curves, or effect the other way; inactive means no such curve, though single readings can be large or run the other way; the % refers to the signal ratio).
Test [13] deals with Estrogen receptor (Homo sapiens) (UniProt P03372). Kind of test: qHTS assay to identify small molecule agonists of the estrogen receptor alpha (ER-alpha) signaling pathway (AID 743075; calls by dose curve;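 further: HEK293 GripTite cells with ER-alpha and UAS-driven beta-lactamase reporter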). Particulars: HEK293 ER-alpha-UAS-bla, beta-lactamase FRET ratio, 18 h.
Test [14] has as its target Cytochrome P450 2C9 (Homo sapiens) (UniProt P11712). As to the kind of experiment: Cytochrome P450 Family 2 Subfamily C Member 9 (CYP2C9) small molecule antagonists: luciferase reporter qHTS assay (AID 1671198). Further: nearly all actives have a fitted effect of over 50% in size. Particulars: P450-Glo CYP2C9 enzyme assay, luciferin luminescence. An outline of the steps: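 Enzyme-substrate mix preincubated with compound 10 min at room temperature; reaction started with NADPH regeneration solution, 1 h 37C. Luminescent luciferin product read after 20 min detection reagent.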

Test [15] is described as follows: qHTS assay for small molecule disruptors of the mitochondrial membrane potential (AID 720635). In outline: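 Mitochondrial membrane potential tracked with Mito-MPS dye, red aggregates (ex 540/em 590 nm) against green monomers (ex 490/em 535 nm). Compound treatment 1 hr at 37C, dye 30 min in HepG2.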

Some entries of the source have several records that differ or are many. Only these are listed. Unless noted, the call rests on the fitted dose curve; in most records, active means well fitted curve in the direction sought with a large enough effect in the repeat runs; inconclusive means weak or mixed curves; inactive means no such curve, though single readings can be large; an effect the other way counts as inactive or inconclusive. There may be further records. Results that share an entry repeat one measurement in other runs, samples, wells, individuals or studies. More than one record can exist for a structure, and the calls need not agree. Records carry a tag for their origin. Letters hold for one entry only. Marks such as (2×) say how often a value occurs here.
Potency means the concentration at half of the fitted maximal effect.

Sequence of UniProt P11712 (P11712 whole entry, looked up): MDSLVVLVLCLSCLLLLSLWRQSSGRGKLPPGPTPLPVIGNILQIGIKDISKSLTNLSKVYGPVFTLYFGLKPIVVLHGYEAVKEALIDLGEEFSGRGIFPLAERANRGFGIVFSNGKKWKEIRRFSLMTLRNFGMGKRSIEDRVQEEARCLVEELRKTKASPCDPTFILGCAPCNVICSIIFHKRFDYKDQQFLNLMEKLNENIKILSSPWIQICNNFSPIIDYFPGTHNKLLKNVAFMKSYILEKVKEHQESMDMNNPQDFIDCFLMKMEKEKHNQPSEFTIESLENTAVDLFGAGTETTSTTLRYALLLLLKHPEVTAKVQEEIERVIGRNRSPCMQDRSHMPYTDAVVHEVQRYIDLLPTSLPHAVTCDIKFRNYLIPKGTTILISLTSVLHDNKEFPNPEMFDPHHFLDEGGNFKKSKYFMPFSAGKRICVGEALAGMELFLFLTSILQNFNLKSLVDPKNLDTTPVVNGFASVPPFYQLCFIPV
Sequence of UniProt P04150 (P04150 whole entry, looked up): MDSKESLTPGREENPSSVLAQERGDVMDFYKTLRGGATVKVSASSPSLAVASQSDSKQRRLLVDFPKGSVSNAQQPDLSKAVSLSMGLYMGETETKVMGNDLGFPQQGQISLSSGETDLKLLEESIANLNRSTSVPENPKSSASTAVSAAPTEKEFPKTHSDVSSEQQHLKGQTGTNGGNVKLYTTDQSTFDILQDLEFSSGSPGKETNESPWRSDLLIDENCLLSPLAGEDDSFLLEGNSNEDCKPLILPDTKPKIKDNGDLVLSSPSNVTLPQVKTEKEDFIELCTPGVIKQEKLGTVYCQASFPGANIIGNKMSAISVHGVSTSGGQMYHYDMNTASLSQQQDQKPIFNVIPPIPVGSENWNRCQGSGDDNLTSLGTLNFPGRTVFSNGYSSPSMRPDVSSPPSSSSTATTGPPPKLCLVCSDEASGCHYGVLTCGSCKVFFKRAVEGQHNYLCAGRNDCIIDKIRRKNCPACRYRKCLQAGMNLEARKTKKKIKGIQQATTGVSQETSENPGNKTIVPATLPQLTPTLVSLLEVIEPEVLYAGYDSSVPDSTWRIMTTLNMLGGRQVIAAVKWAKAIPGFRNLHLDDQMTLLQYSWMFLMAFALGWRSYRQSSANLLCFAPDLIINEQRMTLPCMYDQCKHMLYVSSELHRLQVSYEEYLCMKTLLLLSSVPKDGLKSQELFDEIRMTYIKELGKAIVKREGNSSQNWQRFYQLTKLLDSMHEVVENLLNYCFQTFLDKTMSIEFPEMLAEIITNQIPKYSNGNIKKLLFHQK
Sequence of UniProt P03372 (P03372 whole entry, looked up): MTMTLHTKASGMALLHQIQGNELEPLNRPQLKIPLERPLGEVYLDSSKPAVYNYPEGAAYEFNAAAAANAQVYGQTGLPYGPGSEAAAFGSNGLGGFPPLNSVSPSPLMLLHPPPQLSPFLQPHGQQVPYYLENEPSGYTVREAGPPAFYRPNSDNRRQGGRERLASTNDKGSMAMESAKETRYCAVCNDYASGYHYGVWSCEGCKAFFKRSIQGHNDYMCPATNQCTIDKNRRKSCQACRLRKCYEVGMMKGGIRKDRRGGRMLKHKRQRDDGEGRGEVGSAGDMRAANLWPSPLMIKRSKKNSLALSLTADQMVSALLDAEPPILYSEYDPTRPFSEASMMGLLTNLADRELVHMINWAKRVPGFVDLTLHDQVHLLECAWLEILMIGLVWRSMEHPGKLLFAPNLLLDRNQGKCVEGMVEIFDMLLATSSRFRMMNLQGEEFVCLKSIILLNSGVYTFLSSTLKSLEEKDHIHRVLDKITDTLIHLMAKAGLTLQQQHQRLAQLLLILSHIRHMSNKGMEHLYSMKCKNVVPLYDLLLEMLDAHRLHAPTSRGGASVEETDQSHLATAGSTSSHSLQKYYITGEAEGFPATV
Sequence of UniProt P10275 (P10275 whole entry, looked up): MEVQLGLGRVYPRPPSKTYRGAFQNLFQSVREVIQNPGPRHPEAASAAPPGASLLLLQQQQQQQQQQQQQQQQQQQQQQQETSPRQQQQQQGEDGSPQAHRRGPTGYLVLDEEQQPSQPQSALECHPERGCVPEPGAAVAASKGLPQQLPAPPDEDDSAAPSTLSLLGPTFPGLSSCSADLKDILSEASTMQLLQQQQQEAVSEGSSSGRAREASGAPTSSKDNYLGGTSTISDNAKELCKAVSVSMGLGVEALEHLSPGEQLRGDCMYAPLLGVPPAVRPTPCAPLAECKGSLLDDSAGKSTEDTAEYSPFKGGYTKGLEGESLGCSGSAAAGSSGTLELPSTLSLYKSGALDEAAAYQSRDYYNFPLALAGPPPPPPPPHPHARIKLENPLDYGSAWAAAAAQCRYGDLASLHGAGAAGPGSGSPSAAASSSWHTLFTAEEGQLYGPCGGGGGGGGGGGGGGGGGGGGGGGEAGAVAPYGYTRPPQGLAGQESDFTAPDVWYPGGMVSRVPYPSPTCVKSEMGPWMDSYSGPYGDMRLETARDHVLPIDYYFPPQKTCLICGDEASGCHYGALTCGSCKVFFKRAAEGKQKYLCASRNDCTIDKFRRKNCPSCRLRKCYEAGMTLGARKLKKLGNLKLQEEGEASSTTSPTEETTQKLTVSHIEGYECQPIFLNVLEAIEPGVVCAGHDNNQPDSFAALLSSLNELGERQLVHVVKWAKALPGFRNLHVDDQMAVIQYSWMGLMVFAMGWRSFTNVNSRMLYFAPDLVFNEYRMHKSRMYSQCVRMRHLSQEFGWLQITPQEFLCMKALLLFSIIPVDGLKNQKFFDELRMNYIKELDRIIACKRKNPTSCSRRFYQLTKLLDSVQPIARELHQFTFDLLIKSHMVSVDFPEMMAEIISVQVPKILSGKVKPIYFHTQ

In the case of `CC1=C(/C=C/C(C)=C/C=C/C(C)=C/C(=O)O)C(C)(C)CCC1`, in [1], the Potency result is “inactive [sample A] and active: 61.2 µM [sample B] and active: 61.1 µM [sample C]”.
With `NC(N)=NC(N)=NCCc1ccccc1`, the Potency result in test [2] was “active: 11.4, 7.5, 38.3, 48.6 µM [separate samples]”; in test [3], “inactive [sample A] and active: 60.8 µM [sample B] and active: 54.5 µM [sample C]”; in [4], “active: 5.07, 9.44, 21.6, 24.3 µM [separate samples]”.
Take `COc1cc(O)c(C(=O)c2ccccc2)cc1S(=O)(=O)O`: in test [5], the Potency entry is “active: 29.8 µM [sample A] and inactive [sample B] and inactive [sample C]”.
For the molecule `NC(=O)N/N=C/c1ccc([N+](=O)[O-])o1`, the Potency result was “inactive [sample A] and active: 19.3 µM [sample B]” in test [6]; “inactive [sample A] and active: 54.5 µM [sample B]” in test [7].
Consider `CC(=O)CCC(C)C`, for which the Potency entry was “inactive [sample A] and active: 24.5 µM [sample B]” in test [8]; “inactive [sample A] and active: 24.5 µM [sample B]” in [9].
For the molecule `CC(C)(C)CC(C)(C)c1ccc(O)c(-n2nc3ccccc3n2)c1`, the Potency entry in [10] was “active: 44.3 µM [sample A] and inactive [sample B]”; in test [11] it was “active: 35.2 µM [sample A] and inactive [sample B] and inactive [sample C]”.
Regarding `C#C[C@]1(O)CC[C@H]2[C@@H]3CCC4=CC(=O)CC[C@@H]4[C@H]3CC[C@@]21CC`, the Potency entry in [12] was “active: 601 nM, 219 nM, 490 nM and inactive [separate samples]”; in [13], “active: 1.51 µM [inconclusive] and active: 438 nM [inconclusive] and active: 1.95 µM [inconclusive] and active: 2.19 µM [inconclusive] [separate samples]”; in test [8], “active: 49.1 µM and inactive (3×) [separate samples]”; in [14], “active: 2.25, 7.1, 2.24, 3.09 µM [separate samples]”.
Regarding `Cc1cnc(NC(=O)C2=C(O)c3ccccc3S(=O)(=O)N2C)s1`, the Potency entry in [6] is “inactive [sample A] and active: 61.1 µM [sample B]”; in test [15], “active: 10.6 µM, 9.71 µM, 19.3 µM and inactive [separate samples]”.
Turning to `O=c1c(-c2ccc(O)cc2)coc2cc(O)cc(O)c12`, the Potency entry in test [6] was “inactive [sample A] and active: 53.5 µM [sample B] and inactive [sample C]”.

The record behind these values is PubChem BioAssay (Tox21).
